# Screen size: about 310,000 compounds; about 2,200 (0.71%) showed an effect of 50% or more. The effect is printed as a negative number. Some of the results follow.
# Target: human ether-à-go-go-related gene (hERG) potassium channel (human, UniProt Q12809)
# Assay: primary screen, population patch clamp on CHO cells stably expressing hERG
# human ether-à-go-go-related gene (hERG) potassium channel, sequence (Q12809 whole entry, looked up): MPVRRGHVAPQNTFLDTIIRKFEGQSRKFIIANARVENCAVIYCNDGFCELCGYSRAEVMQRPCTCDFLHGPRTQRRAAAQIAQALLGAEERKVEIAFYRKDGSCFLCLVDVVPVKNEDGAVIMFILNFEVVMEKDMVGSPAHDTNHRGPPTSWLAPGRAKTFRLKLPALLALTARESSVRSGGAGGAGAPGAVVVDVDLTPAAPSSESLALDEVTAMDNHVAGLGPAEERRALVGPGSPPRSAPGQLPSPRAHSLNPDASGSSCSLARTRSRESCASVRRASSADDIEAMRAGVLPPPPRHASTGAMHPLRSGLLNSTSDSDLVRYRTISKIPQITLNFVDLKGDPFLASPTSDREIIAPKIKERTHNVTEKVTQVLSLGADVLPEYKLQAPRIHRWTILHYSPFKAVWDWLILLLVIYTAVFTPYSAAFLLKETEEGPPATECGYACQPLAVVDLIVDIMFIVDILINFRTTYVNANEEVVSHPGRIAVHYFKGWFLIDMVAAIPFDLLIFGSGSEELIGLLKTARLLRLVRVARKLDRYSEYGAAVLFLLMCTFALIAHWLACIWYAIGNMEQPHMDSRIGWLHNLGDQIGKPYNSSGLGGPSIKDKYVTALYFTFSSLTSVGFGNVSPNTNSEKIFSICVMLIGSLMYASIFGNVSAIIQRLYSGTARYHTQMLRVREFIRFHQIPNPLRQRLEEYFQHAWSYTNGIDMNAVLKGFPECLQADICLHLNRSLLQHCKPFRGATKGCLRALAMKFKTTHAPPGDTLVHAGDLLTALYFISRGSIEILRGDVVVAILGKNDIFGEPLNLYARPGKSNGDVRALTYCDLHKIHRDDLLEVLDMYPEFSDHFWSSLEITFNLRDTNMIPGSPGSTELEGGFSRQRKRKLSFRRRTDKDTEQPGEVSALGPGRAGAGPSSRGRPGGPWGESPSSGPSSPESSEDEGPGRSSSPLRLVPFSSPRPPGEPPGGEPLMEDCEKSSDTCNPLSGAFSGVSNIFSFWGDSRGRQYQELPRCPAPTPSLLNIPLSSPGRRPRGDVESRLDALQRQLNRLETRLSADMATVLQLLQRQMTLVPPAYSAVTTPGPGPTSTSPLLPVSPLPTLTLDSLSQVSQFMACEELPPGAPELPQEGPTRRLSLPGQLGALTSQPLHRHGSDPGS
row,SMILES,"hERG current change (%, negative = inhibition) at 1uM [%]"
1,CCn1ccnc1C(O)c1cccc(OC)c1OC (stereo not shown),12.8
2,C=CCNC(=S)Nc1ccccc1,-4.74
3,O=C(CCOc1ccccc1F)N1CCN(c2ccccc2O)CC1,7.54
4,COc1cc(-c2nnc(SC(C)C(=O)Nc3c(C)n(C)n(-c4ccccc4)c3=O)o2)cc(OC)c1OC (stereo not shown),-4.78
5,CCN(CC)CCNC(=O)c1sc2nc(-c3ccccc3)cn2c1C,-31.8
6,Cc1ncc(CN2CCCC(C(=O)c3ccc(C(C)(C)C)cc3)C2)s1 (stereo not shown),-43.4
7,COc1cccc(CNC(=O)CCCSc2ccccc2)c1,8.06
8,NC(=O)C1CCN(CC(=O)Nc2cc(Cl)ccc2Oc2ccccc2)CC1,-42.9
9,O=C1OCCC1Sc1nnc(-c2ccc3c(c2)OCO3)o1 (stereo not shown),13.8
10,COCCN(C(=O)Nc1ccc(OC)cc1OC)C1CCN(C(C)=O)CC1,3.49
11,O=C(Cn1cnc2sc3c(c2c1=O)CCCC3)NCCC(=O)N1CCC2(CC1)OCCO2,-7.36
12,O=C(Nc1c2c(nn1-c1ccccc1)CS(=O)(=O)C2)c1ccco1,-5.68
13,O=C(Nc1ccc(Cl)cc1F)c1cc(S(=O)(=O)N2CCCCC2)ccc1F,3.14
14,O=C(Nc1ccc(F)cc1)N1CCC(c2nc3c(nnn3Cc3cccc(Cl)c3)c(=O)[nH]2)CC1,-2.86
15,COc1ccc(S(=O)(=O)N(C)CC(=O)N2CCN(C)CC2)cc1Cl,8.72
16,CC(C)c1ccc(N(C(=O)c2ccc3c(c2)OCO3)C2C=CS(=O)(=O)C2)cc1 (stereo not shown),-26.8
17,CC(=O)/C(C#N)=C1\NC(=O)C(Cc2ccc(F)cc2)S1 (stereo not shown),17.3
18,CCc1c(C)sc2nc3c(C(=O)N4CCOCC4)cc(C(=O)c4cc(F)ccc4O)cn3c(=O)c12,15
19,O=C(NCCCc1ccccc1)c1cccc(S(=O)(=O)N2CCOCC2)c1,0.916
20,CC1CCCC(C)N1CCCNC(=O)C1CCCN(c2ncnc3c2nc2n3CCCCC2)C1 (stereo not shown),8.89
21,CCCCNC(=O)C1CCN(C(=O)Nc2ccc(C)cc2)CC1,14.7
22,CCOc1ccc(/C=N/NC(=O)CCC(=O)Nc2ccc(F)cc2)cc1,14.9

row,SMILES,"hERG current change (%, negative = inhibition) at 1uM [%]"
1,O=c1oc2c(CN3CCCCC3)c(O)ccc2c2c1CCCCC2,-16.5
2,Cc1cc2nc(-c3ccncc3)cc(C(F)(F)F)n2n1,0.682
3,CCCCn1c(N)c(N(CCC(C)C)C(=O)C2CC(=O)N(Cc3ccc(C)cc3)C2)c(=O)[nH]c1=O (stereo not shown),16.8
4,COc1ccc(OCCSc2nc(N)cc(N)n2)cc1,-5.65
5,COCc1[nH]nc2c1C(c1ccnc3ccccc13)C(C#N)=C(N)O2 (stereo not shown),8
6,COc1ccc(CCC(=O)NC(C)c2ccccc2)cc1OC (stereo not shown),6.3
7,O=C(CCCN1C(=O)/C(=C/c2cccc(Br)c2)SC1=S)Nc1cccnc1,16.7
8,N#Cc1cc(N)ccc1-n1cccc1,10.5
9,O=C(COC(=O)c1ccc(S(=O)(=O)N2CCOCC2)cc1)NCc1cccs1,8.84
10,COc1cc(/C=N/NC(=O)c2ccncc2)ccc1OC(=O)c1ccccc1Cl,-24.3
11,COc1cc(/C=C2\CCCc3c2nc2ccccc2c3C(=O)O)cc(OC)c1O,7.67
12,Cc1ccc(C(=O)NNC(=O)c2ccc(-n3cncn3)c([N+](=O)[O-])c2)cc1,13.3
13,CC(C)(C)n1ncc2c(=O)n(CC(=O)NCc3ccccc3)cnc21,15.4
14,Cc1c(O[C@@H]2O[C@H](CO)[C@@H](O)[C@H](O)[C@H]2O)ccc2c1oc(=O)c1ccccc12,16.9
15,Cc1ccc(NC(=O)c2ccccc2[N+](=O)[O-])nc1,4.35
16,COc1ccccc1/C=C/C(=O)Nc1ccc(S(=O)(=O)Nc2cc(C)on2)cc1,3.96
17,C/C=C(\C)CN1CCC(n2nccc2NC(=O)c2ccc3c(c2)OCO3)CC1,-4.59
18,Cc1ccc(CN2C(=O)C(C)Nc3ncnc(N4CCOCC4)c32)cc1.O=C(O)C(F)(F)F (stereo not shown),15.6
19,O=c1[nH]c2ccc(NC(=S)NC3CCCCC3)cc2[nH]1,11.6
20,Cc1ccc(NC(=O)Nc2c(C)n(C)n(-c3ccccc3)c2=O)cc1,-0.363
21,CCOC(=O)C1CCCN(c2c(NCCc3cccc(C)c3)c(=O)c2=O)C1 (stereo not shown),10.4
22,Cc1ccc2c(c1)CC1(CN2C)C(=O)NC(=O)N(c2cccc(C)c2C)C1=O (stereo not shown),-12.9

row,SMILES,"hERG current change (%, negative = inhibition) at 1uM [%]"
1,C/C(=N/Oc1nc(C)cc(C)n1)c1ccccc1,5.77
2,CC(=O)NNc1cc(N2CCOCC2)nc(N2CCOCC2)n1.Cl,15.4
3,CCO[C@H]1OC(C(=O)NC2CC2)=C[C@@H](c2ccc(Br)cc2)[C@@H]1CCCO,-7.47
4,COc1ccc(-c2cnnc(N/N=C/c3ccc(O)cc3)n2)cc1,11.4
5,C=CCNS(=O)(=O)c1ccc2c(c1)n(C)c(=O)n2C,9.48
6,CCOCCCNC(=O)CN1C(=O)/C(=C\c2ccc(C)cc2)Sc2ccccc21,0.457
7,O=C(CNS(=O)(=O)c1cccc2nsnc12)NCc1ccc(Cl)cc1,7.26
8,Cc1ccc(C(=O)Nc2ccccc2N2CCOCC2)cc1S(=O)(=O)N1CCOCC1,-6.31
9,COc1cc(SC)ccc1C(=O)NC(C)C,20.7
10,O=C(N/N=C/c1ccc([N+](=O)[O-])s1)c1ccccc1Br,16.9
11,COc1ccc(S(=O)(=O)N2CCN(C(=O)CCC3CCCC3)CC2)cc1,-1.99
12,Cc1cccc(NCN2C(=O)c3ccccc3C2=O)c1,7.81
13,CCC(C)[C@H](NC(=O)NC1CC1)C(=O)O (stereo partly shown),5.22
14,C=CCSc1nc2c(c(=O)[nH]c(=O)n2C)n1C/C=C(/C)Cl,2.37
15,COc1ccc([N+](=O)[O-])cc1N/C(=N/S(=O)(=O)c1ccccc1)c1ccccc1,-7.1
16,COc1ccccc1CCC(=O)N1CCN(S(=O)(=O)c2cccc(F)c2)CC1,-0.0623
17,Cc1cccc(-n2c(C)cc(C=C3C(=O)c4ccccc4C3=O)c2C)c1,22.3
18,CCCCNC(=O)c1sc(=S)n2c1[nH]c(=O)c1ccc(C(=O)NCCc3ccc(OC)c(OC)c3)cc12,6.01
19,Cc1ccc(N2CCN(C(=O)C3CCC(=O)N(Cc4ccc(Cl)cc4)C3)CC2)c(C)c1 (stereo not shown),6.1
20,COC(=O)c1sc(N2C(=O)C(O)=C(C(=O)c3ccc(C)o3)C2c2cc(OC)ccc2OC)nc1C (stereo not shown),14.4
21,O=C(CCCn1c(=S)[nH]c2cc3c(cc2c1=O)OCO3)NCc1ccco1,8.37
22,Cc1ccc(NC(=O)N2CCCC2C(=O)NCCC2=CCCCC2)cc1 (stereo not shown),-1.7

row,SMILES,"hERG current change (%, negative = inhibition) at 1uM [%]"
1,NC(=O)CC(NC(=O)c1ccccc1)c1ccc(NC2CCCCC2)c([N+](=O)[O-])c1 (stereo not shown),12.5
2,COc1ccc(S(=O)(=O)N2CCOCC2)cc1C(=O)Nc1ccon1,9.68
3,Cc1nnc2c(NC3CCCCC3)nc3ccccc3n12,11.4
4,CCOc1ccc(N(CC(=O)N2CCCCCC2)S(=O)(=O)c2ccc(C)cc2)cc1,3.03
5,COc1ccccc1CN1CCN(Cc2ccc(Cl)cc2)CC1.O=C(O)C(=O)O,-10.8
6,COc1ccc(CNC(=O)Cn2nc(-c3ccc4c(c3)OCCO4)ccc2=O)cc1,2.61
7,O=C(NCc1ccco1)c1ccc(COc2cc(Cl)ccc2Cl)cc1,4.93
8,O=C(CN1C(=O)NC2(CCCCC2)C1=O)N1CCN(S(=O)(=O)c2cccc(F)c2)CC1,-33.4
9,COC(=O)c1cn(NC(=O)C2CCCCC2)c(=O)c2ccccc12,4.13
10,Cc1ccc(CSc2nnc(SCC(=O)N/N=C/c3ccc(C(=O)O)cc3)s2)cc1,6.88
11,O=C(COC(=O)Cn1cnc2ccccc2c1=O)NCC12CC3CC(CC(C3)C1)C2,6.05
12,NC(=O)CC(NC(=O)Cc1ccc(Cl)cc1)c1ccc(N2CCN(c3ccccn3)CC2)c([N+](=O)[O-])c1 (stereo not shown),19.5
13,CC1=NN(C(=O)c2csc(C)c2)C(O)(C(F)(F)F)C1 (stereo not shown),11.5
14,O=C(Cn1c(=O)n(CCCCC(=O)NC2CCCC2)c(=O)c2ccccc21)NCCC1=CCCCC1,6.47
15,Cc1nc(C)c(C(=O)Nc2cccc(C)c2C)o1,4.71
16,O=C(CCC(=O)c1cccs1)NNC(=O)c1ccccc1Cl,7.93
17,CCOc1ccc(C(=O)CC(Sc2ccc(C)cc2)C(=O)O)cc1 (stereo not shown),9.44
18,COc1cc(OC)cc(-c2nnc(NC(=O)c3ccc4c(c3)OCCO4)o2)c1,5.57
19,Cc1cccc2cc(/C=N/NC(=O)CN3CCCCC3)c(Cl)nc12,7.4

# — article PMC4336329 (PLoS ONE, 2015)
